# Out of some 310,000 compounds screened, about 2,200 (0.71%) showed an effect of 50% or more. The effect is printed as a negative number. This is one part of the list.
# Target: human ether-à-go-go-related gene (hERG) potassium channel (human, UniProt Q12809)
# Experiment: primary screen, population patch clamp on CHO cells stably expressing hERG
# human ether-à-go-go-related gene (hERG) potassium channel, sequence (Q12809 whole entry, looked up): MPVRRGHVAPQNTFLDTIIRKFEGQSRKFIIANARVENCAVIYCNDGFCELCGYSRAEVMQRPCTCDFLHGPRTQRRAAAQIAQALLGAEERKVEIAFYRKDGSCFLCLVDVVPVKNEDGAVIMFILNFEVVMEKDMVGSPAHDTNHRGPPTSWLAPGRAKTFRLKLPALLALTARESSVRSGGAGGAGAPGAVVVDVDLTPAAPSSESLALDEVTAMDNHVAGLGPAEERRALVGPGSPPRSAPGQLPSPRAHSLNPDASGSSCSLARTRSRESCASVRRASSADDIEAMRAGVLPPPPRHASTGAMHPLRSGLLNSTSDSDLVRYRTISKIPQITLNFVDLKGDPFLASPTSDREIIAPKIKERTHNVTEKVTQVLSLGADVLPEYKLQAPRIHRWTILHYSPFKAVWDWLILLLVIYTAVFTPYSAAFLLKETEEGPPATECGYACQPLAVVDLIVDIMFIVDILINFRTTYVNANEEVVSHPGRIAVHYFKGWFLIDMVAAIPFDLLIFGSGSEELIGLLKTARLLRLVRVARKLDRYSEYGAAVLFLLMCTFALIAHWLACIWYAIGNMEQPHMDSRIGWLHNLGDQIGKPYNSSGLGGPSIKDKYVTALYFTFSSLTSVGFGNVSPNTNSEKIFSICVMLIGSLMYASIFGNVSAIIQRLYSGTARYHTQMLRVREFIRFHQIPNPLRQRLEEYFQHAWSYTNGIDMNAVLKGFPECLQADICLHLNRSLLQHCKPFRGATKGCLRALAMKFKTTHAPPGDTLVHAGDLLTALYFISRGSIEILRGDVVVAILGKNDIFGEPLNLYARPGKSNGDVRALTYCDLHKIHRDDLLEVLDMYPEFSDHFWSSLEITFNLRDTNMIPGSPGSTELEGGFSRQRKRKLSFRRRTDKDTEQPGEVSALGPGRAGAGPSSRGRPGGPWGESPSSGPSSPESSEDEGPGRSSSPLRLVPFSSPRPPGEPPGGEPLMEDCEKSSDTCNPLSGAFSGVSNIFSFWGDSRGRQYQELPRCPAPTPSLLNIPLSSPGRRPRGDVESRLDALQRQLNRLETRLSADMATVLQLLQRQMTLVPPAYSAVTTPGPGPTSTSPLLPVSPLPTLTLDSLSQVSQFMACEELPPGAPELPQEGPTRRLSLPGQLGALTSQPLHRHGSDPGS
row,SMILES,"hERG current change (%, negative = inhibition) at 1uM"
1,Cl.NCCCCCc1nnc(SCc2ccccc2Cl)o1,-9.02%
2,O=C(CCC(=O)OCC(=O)c1cccc([N+](=O)[O-])c1)Nc1ccccc1Cl,4.27%
3,COc1ccc(Cl)cc1NC(=O)CN(C)CC(=O)N1CC(=O)Nc2ccccc21,3.83%
4,COc1ccc(CNCc2cccc(Cl)c2)cc1,9.59%
5,O=C(N/N=C/c1ccc(Cl)c(Cl)c1)c1ccc2nc[nH]c2c1,14.7%
6,Cc1ccc(NC(=O)CSc2nc(=O)n(CCN3CCOCC3)c3c2CCCC3)cc1,-1.54%
7,CC(=O)Nc1cccc(-n2nnc(SCC(=O)c3ccccc3)n2)c1,13.3%
8,COc1cc(OC)cc(C(=O)Nc2cccc(NC(=O)c3cc(OC)cc(OC)c3)n2)c1,9.84%
9,CCC(C)NC(=O)c1ccccc1NC(=O)c1ccc(CSc2ccccc2)cc1 (centres unmarked),14.6%
10,CCOc1ccc(C(=O)COC(=O)c2ccc(-n3cnnn3)cc2)cc1,15.4%
11,C#Cc1ccc([C@@H]2C=C(C(=O)NCc3ccccc3)O[C@H](OCCCCO)C2)cc1,-0.517%
12,CC1(C)CC(=O)c2cc(NC(=O)c3ccc(F)cc3)c(=O)oc2C1,9%
13,CS(=O)(=O)c1ccc(-c2nnn(CC(=O)Nc3ccc4c(c3)OCCO4)n2)cc1,8.3%
14,Cc1nn(Cc2nnc(SCC(=O)Nc3cccc(C(F)(F)F)c3)n2C)c(C)c1[N+](=O)[O-],-12.4%
15,COC(=O)C1=C(C(=O)OC)[C@@H]2N(Cc3ccccc3)c3ccccc3[C@@]23C[C@@H](C(=O)OC)N(C(=O)C2CCC2)C3=N1,7.32%
16,Cc1cc(NS(=O)(=O)c2ccc(NC(=S)NC(=O)c3ccc(Br)cc3)cc2)no1,1.97%
17,Cc1ccc(S(=O)(=O)N2CCOCC2)cc1C(=O)Nc1ccccc1F,18.2%
18,Cc1ccc(/C=N/n2cnc3sc(C)c(C)c3c2=O)o1,16.5%
19,COc1cc(C(c2nnnn2C(C)(C)C)N2CCN(c3nc4ccccc4s3)CC2)ccc1O (centres unmarked),3.06%
20,O=S(=O)(Nc1ccc(Cc2ccncc2)cc1)c1cccs1,-0.666%
21,CCCCNCc1cc(Br)c(OCC(=O)N2CCOCC2)c(OC)c1.Cl,2.69%
22,O=c1[nH]c(O)c(/C=C2\C=Nc3ccc(Br)cc32)[nH]1,14.9%
23,CCCc1nnc(NC(=O)CSc2ncn[nH]2)s1,10.8%
